# Measured values reported in article doi:10.1101/847806 (bioRxiv, 2019).
# B1: OTUB1 (C91S), catalytically inactive mutant (enzyme)
# chain: not shown
# Target: UBE2D2 (human, UniProt P62837)
# Assay: ITC
# Sequence of UniProt P62837 (P62837 whole entry): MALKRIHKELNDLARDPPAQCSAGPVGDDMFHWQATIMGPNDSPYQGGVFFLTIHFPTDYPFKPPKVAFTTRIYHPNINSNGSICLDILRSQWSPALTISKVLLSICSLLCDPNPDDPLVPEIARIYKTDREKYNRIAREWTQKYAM
binder,measurement,value
B1,binding result,binds
